According to PubChem BioAssay AID1645882 (National Center for Advancing Translational Sciences (NCATS), 2021):
In all, about 16,000 compounds went through this assay and about 120 (0.75%) were called active. The inconclusive results got no clear call from the source; some entries with a clear call stand among them for comparison. Calls come from the whole dose curve; as a rule, active = well fitted inhibition curve with a large enough effect; inconclusive = small, poorly fitted or top-dose-only effect; inactive = no such curve, though single readings can be large or run the other way. Potencies beside an inconclusive call are fits to weak or partial responses and may not hold up. Where a structure was tested more than once in an assay, its records may differ in their call.

Biological target: Rap guanine nucleotide exchange factor 3 (Homo sapiens) (UniProt O95398)
UniProt O95398, sequence (O95398 whole entry, looked up): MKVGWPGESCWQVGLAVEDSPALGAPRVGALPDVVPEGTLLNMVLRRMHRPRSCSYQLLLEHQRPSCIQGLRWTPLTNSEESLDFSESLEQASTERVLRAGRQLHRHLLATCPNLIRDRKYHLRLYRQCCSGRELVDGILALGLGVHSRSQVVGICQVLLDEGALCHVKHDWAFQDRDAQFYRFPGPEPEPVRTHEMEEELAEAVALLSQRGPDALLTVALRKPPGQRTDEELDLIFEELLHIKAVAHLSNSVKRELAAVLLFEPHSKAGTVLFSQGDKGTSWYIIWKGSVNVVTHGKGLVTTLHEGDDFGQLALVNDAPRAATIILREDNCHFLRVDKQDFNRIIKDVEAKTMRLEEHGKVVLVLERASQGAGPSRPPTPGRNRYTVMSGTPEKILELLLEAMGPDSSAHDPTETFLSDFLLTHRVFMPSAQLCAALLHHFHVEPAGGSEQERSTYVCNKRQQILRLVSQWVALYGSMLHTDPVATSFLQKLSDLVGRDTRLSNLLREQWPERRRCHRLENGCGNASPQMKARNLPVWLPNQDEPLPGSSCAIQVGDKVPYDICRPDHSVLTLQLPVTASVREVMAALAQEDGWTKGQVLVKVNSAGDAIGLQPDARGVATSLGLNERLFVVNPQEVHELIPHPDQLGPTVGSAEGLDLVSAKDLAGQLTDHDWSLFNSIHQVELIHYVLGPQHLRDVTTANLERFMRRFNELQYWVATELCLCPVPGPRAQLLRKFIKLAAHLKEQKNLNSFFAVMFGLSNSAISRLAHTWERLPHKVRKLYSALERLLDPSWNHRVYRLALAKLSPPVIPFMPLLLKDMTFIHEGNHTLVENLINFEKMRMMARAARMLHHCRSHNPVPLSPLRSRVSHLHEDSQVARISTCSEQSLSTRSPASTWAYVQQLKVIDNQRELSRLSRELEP
Test: Validation qHTS for antagonist of cAMP-regulated guanine nucleotide exchange factor 3 (EPAC1); note: nearly all actives have a fitted effect of over 75% in size;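 for activity change, negative = inhibition: plate controls were DMSO for no effect and ATA control for full effect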
Settings: EPAC1 Rap1B-BODIPY-GDP exchange, fluorescence; activity change, negative = inhibition: at 150 µM (top of the series)
Summary of the method: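 Nucleotide exchange followed as fluorescence loss when BODIPY-GDP leaves Rap1B (480 nm excitation, 540 nm emission), read at 5 min intervals over 30 min. Reaction: 100 nM EPAC1, 250 nM RAP1B-BODIPY-GDP, 50 uM GDP; ATA and DMSO define normalization.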
Potency is the fitted concentration of half-maximal effect; tags give direction and shape of the fitted curve.

Potency, inconclusive:
CNc1ccc(/C=C2\C=Cc3ccccc32)cc1 12.6 µM [inhibitor, partial curve, poor fit], O=c1cc(-c2cccc(O)c2)oc2c(O)c(O)ccc12 10 µM [inhibitor, partial curve, poor fit], CN(C)c1ccc(/C=C2\C(=O)Nc3ccccc32)cc1 112 µM [inhibitor, single point], Cc1c(CC(C)(C)C(=O)O)n(Cc2ccc(Cl)cc2)c2ccc(F)cc12 100 µM [inhibitor, partial curve, poor fit], [N-]=[N+]=Nc1ccc(C(=O)CSC[C@H](NC(=O)CC[C@H](N)C(=O)O)C(=O)NCC(=O)O)cc1 8.91 µM [inhibitor, single point], CC(=O)OC[C@H]1O[C@@H](O[C@H]2[C@H](O)[C@@H](OC(=O)c3ccccc3C(=O)O)[C@H](O)O[C@@H]2COC(C)=O)[C@H](O)[C@@H](OC(=O)c2ccccc2C(=O)O)[C@@H]1O 10 µM [inhibitor, partial curve], COc1ccccc1N1CCN(c2nc(CNC(=O)C3CC34CCCC4)nc3ccccc23)CC1 (stereo not drawn) 126 µM [inhibitor, single point], O=C(O)c1ccccc1Nc1cccc(OCc2ccc3ccccc3n2)c1 50.1 µM [inhibitor, full curve, poor fit], C[C@H]1C[C@H]2[C@@H]3CCC4=CC(=O)C=C[C@]4(C)[C@@]3(F)[C@@H](O)C[C@]2(C)[C@@]1(O)C(=O)CCl 112 µM [inhibitor, partial curve, poor fit]

Potency, inactive:
COc1ccc(-c2coc3cc(O)cc(O)c3c2=O)cc1

Potency, active:
Oc1c(Cl)cc(Cl)cc1Sc1cc(Cl)cc(Cl)c1O 79.4 µM, C[C@H](NC(=O)/C(C#N)=C/c1ccc(O)c(O)c1)c1ccccc1 89.1 µM

Activity change, negative = inhibition, inactive:
Clc1ccc2ncnc(NCc3ccc4c(c3)OCO4)c2c1 14.1% [at 201 µM], COc1ccc(N2C(=O)[C@@H]3C[C@H]2CN3Cc2cccn2-c2ccc(Cl)cn2)c(C)c1 12.9%, OCC1OC(n2cnc3c(=S)nc[nH]c32)C(O)C1O (stereo not drawn) 12.5%, Nc1nc2c(nc(Sc3ccc(Cl)cc3)n2C2OC(CO)C(O)C2O)c(=O)[nH]1 (stereo not drawn) 19.8%, COc1ccc(SC[C@H](C)CN2CC[C@H](C(C)(C)C)CCC2=O)cc1 -22.7%, Cc1ccccc1C1(CC(=O)N2CCN(C)CC2)CC(=O)N(Cc2ccncc2)C1=O (stereo not drawn) 20.6%
